# Reference: the supplement of paper PMC8728848
# The other results are listed elsewhere or left out.
# B1: Epa3to1 (Candida glabrata) (protein)
# chain: MGSSHHHHHHSSGLVPRGSHMKRELSSQNPFGYPIGCSPQDVAIIPGLTMELYSYPIVSGTPPNCYDASYVDPEYPRTGYLKRKMVGKSTGVTGNLNYKYSVEKACMVKYGNLPAGYNYNEPLTVSNFTMILYGYFKAQTTGLHTFFVNADDLLYINFGAGNAFDCCKREDSKTKLGEYVAYDIWHVDSSKNKVSLFLEKDLYYPIRMFFNNREYDSSLDLSFSVNGATDQISDFSGYLYSVPDQPDTCPAHIGYDTTCR
# Columns and labels:
# Experiment in all cases: glycan array binding signal (z-score within array); higher = stronger binding
# Settings in all cases: glycan notation: IUPAC condensed, linker removed
# [1] = molecular target: Gal(b1-3)GlcNAc(b1-2)Man(a1-3)[Gal(b1-3)GlcNAc(b1-2)Man(a1-6)]Man(b1-4)GlcNAc(b1-4)[Fuc(a1-6)]GlcNAc
# Outline: (§1)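 Glycan array binding is given as a within-array Z-score, which can be read as non-binding when negative. The arrays, 3228 of them, came from the Consortium for Functional Glycomics database and were retained only where the protein sequence was available. Z-scores were averaged across arrays of the same protein sequence at different concentrations or buffers and across linkers.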
# [2] = molecular target: Gal(b1-3)GlcNAc(b1-2)Man(a1-3)[GlcNAc(b1-4)][Gal(b1-3)GlcNAc(b1-2)Man(a1-6)]Man(b1-4)GlcNAc(b1-4)GlcNAc
# Outline: as §1
# [3] = molecular target: Gal(b1-3)GlcNAc(b1-2)[Gal(b1-3)GlcNAc(b1-6)]Man(a1-6)[Gal(b1-3)GlcNAc(b1-2)Man(a1-3)]Man(b1-4)GlcNAc(b1-4)GlcNAc
# Outline: as §1
# [4] = molecular target: Gal(b1-3)GlcNAc(b1-3)Gal(b1-3)GlcNAc
# Outline: as §1
# [5] = molecular target: Gal(b1-3)GlcNAc(b1-3)Gal(b1-4)Glc
# Outline: as §1
# [6] = molecular target: Gal(b1-3)GlcNAc(b1-3)Gal(b1-4)GlcNAc
# Outline: as §1
# [7] = molecular target: Gal(b1-3)GlcNAc(b1-3)Gal(b1-4)GlcNAc(b1-2)Man(a1-3)[Gal(b1-3)GlcNAc(b1-3)Gal(b1-4)GlcNAc(b1-2)Man(a1-6)]Man(b1-4)GlcNAc(b1-4)GlcNAc
# Outline: as §1
# [8] = molecular target: Gal(b1-3)GlcNAc(b1-3)Gal(b1-4)GlcNAc(b1-2)[Gal(b1-3)GlcNAc(b1-3)Gal(b1-4)GlcNAc(b1-6)]Man(a1-6)[Gal(b1-3)GlcNAc(b1-3)Gal(b1-4)GlcNAc(b1-2)Man(a1-3)]Man(b1-4)GlcNAc(b1-4)[Fuc(a1-6)]GlcNAc
# Outline: as §1
# [9] = molecular target: Gal(b1-3)GlcNAc(b1-3)Gal(b1-4)GlcNAc(b1-3)Gal(b1-4)GlcNAc(b1-2)[Gal(b1-3)GlcNAc(b1-3)Gal(b1-4)GlcNAc(b1-3)Gal(b1-4)GlcNAc(b1-6)]Man(a1-6)[Gal(b1-3)GlcNAc(b1-3)Gal(b1-4)GlcNAc(b1-3)Gal(b1-4)GlcNAc(b1-2)Man(a1-3)]Man(b1-4)GlcNAc(b1-4)[Fuc(a1-6)]GlcNAc
# Outline: as §1
# [10] = molecular target: Gal(b1-3)GlcNAc(b1-3)Gal(b1-4)GlcNAc(b1-6)[Gal(b1-3)GlcNAc(b1-3)]Gal(b1-4)Glc
# Outline: as §1
# [11] = molecular target: Gal(b1-3)GlcNAc(b1-3)Gal(b1-4)[Fuc(a1-3)]GlcNAc
# Outline: as §1
# [12] = molecular target: Gal(b1-3)GlcNAc(b1-3)Gal(b1-4)[Fuc(a1-3)]GlcNAc(b1-6)[Gal(b1-3)GlcNAc(b1-3)]Gal(b1-4)Glc
# Outline: as §1
# [13] = molecular target: Gal(b1-3)GlcNAc(b1-3)GalNAc
# Outline: as §1
# [14] = molecular target: Gal(b1-3)GlcNAc(b1-6)Gal(b1-4)GlcNAc
# Outline: as §1
# [15] = molecular target: Gal(b1-3)GlcNAc(b1-6)GalNAc
# Outline: as §1
# [16] = molecular target: Gal(b1-3)GlcNAc(b1-6)[Gal(b1-3)]GalNAc
# Outline: as §1
# [17] = molecular target: Gal(b1-3)GlcNAc6S
# Outline: as §1
# [18] = molecular target: Gal(b1-3)[Fuc(a1-4)]GlcNAc
# Outline: as §1
# [19] = molecular target: Gal(b1-3)[Fuc(a1-4)]GlcNAc(b1-2)Man
# Outline: as §1
# [20] = molecular target: Gal(b1-3)[Fuc(a1-4)]GlcNAc(b1-2)Man(a1-3)[Gal(b1-3)[Fuc(a1-4)]GlcNAc(b1-2)Man(a1-6)]Man(b1-4)GlcNAc(b1-4)[Fuc(a1-6)]GlcNAc
# Outline: as §1
# [21] = molecular target: Gal(b1-3)[Fuc(a1-4)]GlcNAc(b1-3)Gal(b1-3)[Fuc(a1-4)]GlcNAc
# Outline: as §1
# [22] = molecular target: Gal(b1-3)[Fuc(a1-4)]GlcNAc(b1-3)Gal(b1-4)[Fuc(a1-3)]GlcNAc
# Outline: as §1
# [23] = molecular target: Gal(b1-3)[Fuc(a1-4)]GlcNAc(b1-6)GalNAc
# Outline: as §1
# [24] = molecular target: Gal(b1-3)[GlcNAc(b1-6)]GalNAc
# Outline: as §1
# [25] = molecular target: Gal(b1-3)[Neu5Ac(a2-6)]GalNAc
# Outline: as §1
# [26] = molecular target: Gal(b1-3)[Neu5Ac(a2-6)]GlcNAc(b1-4)Gal(b1-4)Glc
# Outline: as §1
# [27] = molecular target: Gal(b1-3)[Neu5Ac(b2-6)]GalNAc
# Outline: as §1
# [28] = molecular target: Gal(b1-4)Gal
# Outline: as §1
# [29] = molecular target: Gal(b1-4)GalNAc(a1-3)[Fuc(a1-2)]Gal(b1-4)GlcNAc
# Outline: as §1
# [30] = molecular target: Gal(b1-4)GalNAc(b1-3)[Fuc(a1-2)]Gal(b1-4)GlcNAc
# Outline: as §1
# [31] = molecular target: Gal(b1-4)Glc
# Outline: as §1
# [32] = molecular target: Gal(b1-4)Glc6S
# Outline: as §1
# [33] = molecular target: Gal(b1-4)GlcNAc
# Outline: as §1
# [34] = molecular target: Gal(b1-4)GlcNAc(a1-6)Gal(b1-4)GlcNAc
# Outline: as §1
# [35] = molecular target: Gal(b1-4)GlcNAc(b1-2)Man
# Outline: as §1
# [36] = molecular target: Gal(b1-4)GlcNAc(b1-2)Man(a1-3)Man(b1-4)GlcNAc(b1-4)GlcNAc
# Outline: as §1
# [37] = molecular target: Gal(b1-4)GlcNAc(b1-2)Man(a1-3)[Gal(b1-4)GlcNAc(b1-2)Man(a1-6)]Man(b1-4)GlcNAc(b1-4)GlcNAc
# Outline: as §1
binder,measurement,setting,value
B1,glycan array binding signal (z-score),[1],-0.163
same,glycan array binding signal (z-score),[2],-0.198
same,glycan array binding signal (z-score),[3],1.67
same,glycan array binding signal (z-score),[4],-0.713
same,glycan array binding signal (z-score),[5],-0.619
same,glycan array binding signal (z-score),[6],-0.502
same,glycan array binding signal (z-score),[7],-0.495
same,glycan array binding signal (z-score),[8],0.514
same,glycan array binding signal (z-score),[9],0.033
same,glycan array binding signal (z-score),[10],0.55
same,glycan array binding signal (z-score),[11],-0.365
same,glycan array binding signal (z-score),[12],-0.061
same,glycan array binding signal (z-score),[13],0.282
same,glycan array binding signal (z-score),[14],1.3
same,glycan array binding signal (z-score),[15],-0.115
same,glycan array binding signal (z-score),[16],-0.069
same,glycan array binding signal (z-score),[17],-0.15
same,glycan array binding signal (z-score),[18],0.745
same,glycan array binding signal (z-score),[19],-0.37
same,glycan array binding signal (z-score),[20],-0.144
same,glycan array binding signal (z-score),[21],-1.4
same,glycan array binding signal (z-score),[22],-0.87
same,glycan array binding signal (z-score),[23],-0.591
same,glycan array binding signal (z-score),[24],0.879
same,glycan array binding signal (z-score),[25],5.48
same,glycan array binding signal (z-score),[26],-0.261
same,glycan array binding signal (z-score),[27],0.919
same,glycan array binding signal (z-score),[28],0.053
same,glycan array binding signal (z-score),[29],-0.965
same,glycan array binding signal (z-score),[30],0.637
same,glycan array binding signal (z-score),[31],0.097
same,glycan array binding signal (z-score),[32],0.529
same,glycan array binding signal (z-score),[33],-0.071
same,glycan array binding signal (z-score),[34],-0.042
same,glycan array binding signal (z-score),[35],-0.775
same,glycan array binding signal (z-score),[36],0.163
same,glycan array binding signal (z-score),[37],-0.402
